Results from the supplement of paper PMC10369915.
Some of the results follow. Rule as the data show it: active = 3.2 or more and inactive = the rest. The signal is at background level for most entries.

Columns and labels:
Assay in all cases: enrichment score (SH2-bound / input frequency) (ratio); bacterial display of known human phosphotyrosine sites (pTyr-Var adds point mutants) read by sequencing; higher = stronger binding; tyrosines were phosphorylated by kinases first
Conditions in all cases: peptide library: pTyr-Var
SHP2 C-SH2 domain E139D = target: SHP2 C-SH2 domain E139D
[1] = target: SHP2 C-SH2 domain wild-type
SHP2 N-SH2 domain L43F = target: SHP2 N-SH2 domain L43F
SHP2 N-SH2 domain T42A = target: SHP2 N-SH2 domain T42A
SHP2 N-SH2 domain T52S = target: SHP2 N-SH2 domain T52S
[2] = target: SHP2 N-SH2 domain wild-type

Measured: enrichment score
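Also: displayed peptides selected on beads carrying the immobilized SH2 domain, with library peptides lacking any tyrosine serving as negative controls.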

B1: HGD_Y334_YF (peptide)
chain: FRPPFYHRNCM
inactive: SHP2 C-SH2 domain E139D 2.97 | [1] 2.39 | SHP2 N-SH2 domain L43F 2.76 | SHP2 N-SH2 domain T42A 2.37 | SHP2 N-SH2 domain T52S 2.91 | [2] 2.29

B2: HGD_Y40_E42A (peptide)
chain: CPYNLYAAQLS
inactive: SHP2 C-SH2 domain E139D 1.27 | [1] 1.24 | SHP2 N-SH2 domain L43F 1.24 | SHP2 N-SH2 domain T42A 0.976 | SHP2 N-SH2 domain T52S 0.988 | [2] 1.12

B3: HGD_Y40_E42A_YF (peptide)
chain: CPFNLYAAQLS
inactive: SHP2 C-SH2 domain E139D 0.955 | [1] 0.991 | SHP2 N-SH2 domain L43F 0.939 | SHP2 N-SH2 domain T42A 0.941 | SHP2 N-SH2 domain T52S 0.9 | [2] 1.1

B4: HGD_Y40_L44F_YF (peptide)
chain: CPFNLYAEQFS
inactive: SHP2 C-SH2 domain E139D 1.33 | [1] 1.7 | SHP2 N-SH2 domain L43F 1.29 | SHP2 N-SH2 domain T42A 1.01 | SHP2 N-SH2 domain T52S 1.16 | [2] 1.45

B5: HHIPL2_Y395 (peptide)
chain: SHGKRYRVPSD
inactive: SHP2 C-SH2 domain E139D 0.406 | [1] 0.375 | SHP2 N-SH2 domain L43F 0.476 | SHP2 N-SH2 domain T42A 0.409 | SHP2 N-SH2 domain T52S 0.543 | [2] 0.388

B6: HHIPL2_Y395_H391D (peptide)
chain: SDGKRYRVPSD
inactive: SHP2 C-SH2 domain E139D 0.595 | [1] 0.725 | SHP2 N-SH2 domain L43F 0.551 | SHP2 N-SH2 domain T42A 0.574 | SHP2 N-SH2 domain T52S 0.484 | [2] 0.848

B7: HHIPL2_Y395_R394Q (peptide)
chain: SHGKQYRVPSD
inactive: SHP2 C-SH2 domain E139D 0.574 | [1] 0.574 | SHP2 N-SH2 domain L43F 0.657 | SHP2 N-SH2 domain T42A 0.562 | SHP2 N-SH2 domain T52S 0.613 | [2] 0.635

B8: HINT1_Y94 (peptide)
chain: GLNKGYRMVVN
inactive: SHP2 C-SH2 domain E139D 0.974 | [1] 0.645 | SHP2 N-SH2 domain L43F 0.676 | SHP2 N-SH2 domain T42A 0.522 | SHP2 N-SH2 domain T52S 0.67 | [2] 0.649

B9: HIPK4_Y175_V171M (peptide)
chain: YMKEPYIQSRF
inactive: SHP2 C-SH2 domain E139D 0.861 | [1] 0.903 | SHP2 N-SH2 domain L43F 0.862 | SHP2 N-SH2 domain T42A 0.624 | SHP2 N-SH2 domain T52S 0.655 | [2] 0.604

B10: HIPK4_Y175_YF (peptide)
chain: FVKEPYIQSRF
inactive: SHP2 C-SH2 domain E139D 0.711 | [1] 0.681 | SHP2 N-SH2 domain L43F 0.687 | SHP2 N-SH2 domain T42A 0.477 | SHP2 N-SH2 domain T52S 0.797 | [2] 0.799

B11: HLA-A_Y137_D140H (peptide)
chain: RFLRGYRQHAY
inactive: SHP2 C-SH2 domain E139D 0.21 | [1] 0.158 | SHP2 N-SH2 domain L43F 0.194 | SHP2 N-SH2 domain T42A 0.259 | SHP2 N-SH2 domain T52S 0.301 | [2] 0.333

B12: HLA-A_Y137_D140Y (peptide)
chain: RFLRGYRQYAY
inactive: SHP2 C-SH2 domain E139D 0.243 | [1] 0.162 | SHP2 N-SH2 domain L43F 0.179 | SHP2 N-SH2 domain T42A 0.111 | SHP2 N-SH2 domain T52S 0.168 | [2] 0.334

B13: HLA-A_Y137_F133L_YF (peptide)
chain: RLLRGYRQDAF
inactive: SHP2 C-SH2 domain E139D 0.196 | [1] 0.236 | SHP2 N-SH2 domain L43F 0.255 | SHP2 N-SH2 domain T42A 0.17 | SHP2 N-SH2 domain T52S 0.263 | [2] 0.235

B14: HLA-A_Y137_R138E (peptide)
chain: RFLRGYEQDAY
inactive: SHP2 C-SH2 domain E139D 0.911 | [1] 0.69 | SHP2 N-SH2 domain L43F 0.582 | SHP2 N-SH2 domain T42A 0.962 | SHP2 N-SH2 domain T52S 0.724 | [2] 0.995

B15: HLA-A_Y137_R138H_YF (peptide)
chain: RFLRGYHQDAF
inactive: SHP2 C-SH2 domain E139D 0.76 | [1] 0.779 | SHP2 N-SH2 domain L43F 0.607 | SHP2 N-SH2 domain T42A 0.612 | SHP2 N-SH2 domain T52S 0.811 | [2] 0.73

B16: HLA-A_Y140_D140Y (peptide)
chain: RGYRQYAYDGK
inactive: SHP2 C-SH2 domain E139D 0.272 | [1] 0.252 | SHP2 N-SH2 domain L43F 0.328 | SHP2 N-SH2 domain T42A 0.288 | SHP2 N-SH2 domain T52S 0.258 | [2] 0.4

B17: HLA-A_Y140_YF (peptide)
chain: RGFRQDAFDGK
inactive: SHP2 C-SH2 domain E139D 0.313 | [1] 0.313 | SHP2 N-SH2 domain L43F 0.376 | SHP2 N-SH2 domain T42A 0.488 | SHP2 N-SH2 domain T52S 0.393 | [2] 0.377

B18: HLA-A_Y147 (peptide)
chain: YDGKDYIALNE
inactive: SHP2 C-SH2 domain E139D 0.846 | [1] 0.711 | SHP2 N-SH2 domain L43F 0.932 | SHP2 N-SH2 domain T42A 0.852 | SHP2 N-SH2 domain T52S 0.807 | [2] 0.713

B19: HLA-A_Y147_N151K_YF (peptide)
chain: FDGKDYIALKE
inactive: SHP2 C-SH2 domain E139D 0.594 | [1] 0.64 | SHP2 N-SH2 domain L43F 0.688 | SHP2 N-SH2 domain T42A 0.57 | SHP2 N-SH2 domain T52S 0.82 | [2] 0.531
